Measurements taken from the supplement of paper PMC12217912.
The other results are listed elsewhere or left out. The full chains were built here from the parent and the listed change. Values near 0.05 are background.

B1: TEV protease; numbered along this chain (parent)
chain: MGESLFKGPRDYNPISSSICHLTNESDGHTTSLYGIGFGPFIITNKHLFRRNNGTLVVQSLHGVFKVKDTTTLQQHLVDGRDMIIIRMPKDFPPFPQKLKFREPQREERICLVTTNFQTKSMSSMVSDTSCTFPSGDGIFWKHWIQTKDGQCGSPLVSTRDGFIVGIHSASNFTNTNNYFTSVPKNFMELLTNQEAQQWVSGWRLNADSVLWGGHKVFMVKPEEPFQPVKEATQL

Variants of: B1
Assay: raw area under fraction-flipped curve 0-4 h after induction (AUC4h, not background-subtracted), DNA-recorder readout of cleavage of the substrate (dimensionless); higher = more cleavage of the substrate by the protease variant
Settings: temperature: 34 °C; time window: 0-4 h after rhamnose induction
Protocol: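 In vivo DNA recorder in E. coli TOP10(DE3) ΔrhaA at 34 °C. Each TEVp single-site mutant (parent TEVp 0) is paired with a single-site variant of the 7-mer TEVs (canonical ENLYFQ|S). The substrate sits between flexible linkers in a Bxb1-sfGFP-TEVs-SsrA fusion, so cleavage stabilises Bxb1 and speeds flipping of a recombination array, read by NGS. The value is the raw area under the fraction-flipped curve over 0-4 h after rhamnose induction (AUC4h), with ≥20 reads per time point. It is not background-subtracted; inactive controls average about 0.047.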
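Also: Bxb1 expression induced with 0.2% (w/v) L-rhamnose at OD600 near 0.5, cultures sampled hourly, flipped fraction per protease–substrate barcode pair counted by paired-end Illumina sequencing.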

MGESLFKGPRDYNPISSSICHLTNESDGHTTSLYGIGFGPFIITNKHLFRRNNGTLVVQSLHGVFKVKDTTTLQQHLVDGRDMIIIRMPKDFPPFPQKLKFREPQREERICLVTTNFQTKIMSSMVSDTSCTFPSGDGIFWKHWIQTKDGQCGSPLVSTRDGFIVGIHSASNFTNTNNYFTSVPKNFMELLTNQEAQQWVSGWRLNADSVLWGGHKVFMVKPEEPFQPVKEATQL [S121I]
area with substrate ENLYFCS: 0.0555
area with substrate ENLYFDS: 0.0569
area with substrate ENLYFES: 0.083
area with substrate ENLYFFS: 0.0603
area with substrate ENLYFHS: 0.0574
area with substrate ENLYFIS: 0.0614
area with substrate ENLYFKS: 0.0641
area with substrate ENLYFMS: 0.0729
area with substrate ENLYFNS: 0.0653
area with substrate ENLYFPS: 0.0584
area with substrate ENLYFRS: 0.0654
area with substrate ENLYFSS: 0.0403
area with substrate ENLYFTS: 0.0502
area with substrate ENLYFVS: 0.0631
area with substrate ENLYFWS: 0.0642
area with substrate ENLYFYS: 0.0525

MGESLFKGPRDYNPISSSICHLTNESDGHTTSLYGIGFGPFIITNKHLFRRNNGTLVVQSLHGVFKVKDTTTLQQHLVDGRDMIIIRMPKDFPPFPQKLKFREPQREERICLVTTNFQTKSMSSMISDTSCTFPSGDGIFWKHWIQTKDGQCGSPLVSTRDGFIVGIHSASNFTNTNNYFTSVPKNFMELLTNQEAQQWVSGWRLNADSVLWGGHKVFMVKPEEPFQPVKEATQL [V126I]
area with substrate ENLYFCS: 0.0488
area with substrate ENLYFDS: 0.0732
area with substrate ENLYFFS: 0.0655
area with substrate ENLYFGS: 0.0549
area with substrate ENLYFHS: 0.0658
area with substrate ENLYFIS: 0.0681
area with substrate ENLYFKS: 0.0558
area with substrate ENLYFMS: 0.0682
area with substrate ENLYFRS: 0.0531
area with substrate ENLYFYS: 0.0591

MGESLFKGPRDYNPISSSICHLTNESDGHTTSLYGIGFGPFIITNKHLFRRNNGTLVVQSLHGVFKVKDTTTLQQHLVDGRDMIIIRMPKDFPPFPQKLKFREPQREERICLVTTNFQTKSMSSMVSDTSCCFPSGDGIFWKHWIQTKDGQCGSPLVSTRDGFIVGIHSASNFTNTNNYFTSVPKNFMELLTNQEAQQWVSGWRLNADSVLWGGHKVFMVKPEEPFQPVKEATQL [T132C]
area with substrate ENLYFCS: 0.0497
area with substrate ENLYFES: 0.0709
area with substrate ENLYFFS: 0.0643
area with substrate ENLYFGS: 0.0569
area with substrate ENLYFHS: 0.0558
area with substrate ENLYFIS: 0.0608
area with substrate ENLYFMS: 0.0623
area with substrate ENLYFNS: 0.0485
area with substrate ENLYFRS: 0.0687
area with substrate ENLYFSS: 0.0617
area with substrate ENLYFTS: 0.0502

MGESLFKGPRDYNPISSSICHLTNESDGHTTSLYGIGFGPFIITNKHLFRRNNGTLVVQSLHGVFKVKDTTTLQQHLVDGRDMIIIRMPKDFPPFPQKLKFREPQREERICLVTTNFQTKSMSSMVSDTSCEFPSGDGIFWKHWIQTKDGQCGSPLVSTRDGFIVGIHSASNFTNTNNYFTSVPKNFMELLTNQEAQQWVSGWRLNADSVLWGGHKVFMVKPEEPFQPVKEATQL [T132E]
area with substrate ENLYFCS: 0.0509
area with substrate ENLYFES: 0.0602
area with substrate ENLYFFS: 0.0724
area with substrate ENLYFGS: 0.0717
area with substrate ENLYFHS: 0.0691
area with substrate ENLYFIS: 0.0506
area with substrate ENLYFKS: 0.0606
area with substrate ENLYFMS: 0.06
area with substrate ENLYFNS: 0.0485
area with substrate ENLYFPS: 0.05
area with substrate ENLYFRS: 0.0457
area with substrate ENLYFSS: 0.0515
area with substrate ENLYFTS: 0.0615
area with substrate ENLYFWS: 0.0581
area with substrate ENLYFYS: 0.0593

MGESLFKGPRDYNPISSSICHLTNESDGHTTSLYGIGFGPFIITNKHLFRRNNGTLVVQSLHGVFKVKDTTTLQQHLVDGRDMIIIRMPKDFPPFPQKLKFREPQREERICLVTTNFQTKSMSSMVSDTSCTLPSGDGIFWKHWIQTKDGQCGSPLVSTRDGFIVGIHSASNFTNTNNYFTSVPKNFMELLTNQEAQQWVSGWRLNADSVLWGGHKVFMVKPEEPFQPVKEATQL [F133L]
area with substrate ENLYFCS: 0.0771
area with substrate ENLYFDS: 0.067
area with substrate ENLYFFS: 0.0692
area with substrate ENLYFGS: 0.0535
area with substrate ENLYFMS: 0.0641
area with substrate ENLYFNS: 0.0513
area with substrate ENLYFPS: 0.0618

MGESLFKGPRDYNPISSSICHLTNESDGHTTSLYGIGFGPFIITNKHLFRRNNGTLVVQSLHGVFKVKDTTTLQQHLVDGRDMIIIRMPKDFPPFPQKLKFREPQREERICLVTTNFQTKSMSSMVSDTSCTFQSGDGIFWKHWIQTKDGQCGSPLVSTRDGFIVGIHSASNFTNTNNYFTSVPKNFMELLTNQEAQQWVSGWRLNADSVLWGGHKVFMVKPEEPFQPVKEATQL [P134Q]
area with substrate ENLYFCS: 0.0544
area with substrate ENLYFES: 0.0623
area with substrate ENLYFFS: 0.061
area with substrate ENLYFIS: 0.063
area with substrate ENLYFKS: 0.0477
area with substrate ENLYFLS: 0.0476
area with substrate ENLYFMS: 0.065
area with substrate ENLYFPS: 0.0623
area with substrate ENLYFRS: 0.0551
area with substrate ENLYFSS: 0.0638
area with substrate ENLYFTS: 0.0729
area with substrate ENLYFWS: 0.063

MGESLFKGPRDYNPISSSICHLTNESDGHTTSLYGIGFGPFIITNKHLFRRNNGTLVVQSLHGVFKVKDTTTLQQHLVDGRDMIIIRMPKDFPPFPQKLKFREPQREERICLVTTNFQTKSMSSMVSDTSCTFPSGFGIFWKHWIQTKDGQCGSPLVSTRDGFIVGIHSASNFTNTNNYFTSVPKNFMELLTNQEAQQWVSGWRLNADSVLWGGHKVFMVKPEEPFQPVKEATQL [D137F]
area with substrate ENLYFCS: 0.0581
area with substrate ENLYFES: 0.0653
area with substrate ENLYFFS: 0.0694
area with substrate ENLYFGS: 0.0482
area with substrate ENLYFHS: 0.0152
area with substrate ENLYFIS: 0.0521
area with substrate ENLYFKS: 0.0678
area with substrate ENLYFMS: 0.0649
area with substrate ENLYFPS: 0.0614
area with substrate ENLYFRS: 0.0581
area with substrate ENLYFWS: 0.0479

MGESLFKGPRDYNPISSSICHLTNESDGHTTSLYGIGFGPFIITNKHLFRRNNGTLVVQSLHGVFKVKDTTTLQQHLVDGRDMIIIRMPKDFPPFPQKLKFREPQREERICLVTTNFQTKSMSSMVSDTSCTFPSGDGIFWKHWIVTKDGQCGSPLVSTRDGFIVGIHSASNFTNTNNYFTSVPKNFMELLTNQEAQQWVSGWRLNADSVLWGGHKVFMVKPEEPFQPVKEATQL [Q146V]
area with substrate ENLYFCS: 0.0578
area with substrate ENLYFDS: 0.0556
area with substrate ENLYFES: 0.0614
area with substrate ENLYFFS: 0.0685
area with substrate ENLYFHS: 0.0838
area with substrate ENLYFIS: 0.055
area with substrate ENLYFKS: 0.068
area with substrate ENLYFLS: 0.0519
area with substrate ENLYFNS: 0.0646
area with substrate ENLYFPS: 0.0642
area with substrate ENLYFRS: 0.0655
area with substrate ENLYFSS: 0.0626
area with substrate ENLYFTS: 0.0682
area with substrate ENLYFVS: 0.0519

MGESLFKGPRDYNPISSSICHLTNESDGHTTSLYGIGFGPFIITNKHLFRRNNGTLVVQSLHGVFKVKDTTTLQQHLVDGRDMIIIRMPKDFPPFPQKLKFREPQREERICLVTTNFQTKSMSSMVSDTSCTFPSGDGIFWKHWIQFKDGQCGSPLVSTRDGFIVGIHSASNFTNTNNYFTSVPKNFMELLTNQEAQQWVSGWRLNADSVLWGGHKVFMVKPEEPFQPVKEATQL [T147F]
area with substrate ENLYFCS: 0.0591
area with substrate ENLYFHS: 0.0545
area with substrate ENLYFIS: 0.055
area with substrate ENLYFKS: 0.0631
area with substrate ENLYFTS: 0.061
area with substrate ENLYFYS: 0.0567

MGESLFKGPRDYNPISSSICHLTNESDGHTTSLYGIGFGPFIITNKHLFRRNNGTLVVQSLHGVFKVKDTTTLQQHLVDGRDMIIIRMPKDFPPFPQKLKFREPQREERICLVTTNFQTKSMSSMVSDTSCTFPSGDGIFWKHWIQTKDGYCGSPLVSTRDGFIVGIHSASNFTNTNNYFTSVPKNFMELLTNQEAQQWVSGWRLNADSVLWGGHKVFMVKPEEPFQPVKEATQL [Q151Y]
area with substrate ENLYFCS: 0.0636
area with substrate ENLYFDS: 0.041
area with substrate ENLYFES: 0.0741
area with substrate ENLYFFS: 0.076
area with substrate ENLYFHS: 0.055
area with substrate ENLYFIS: 0.0557
area with substrate ENLYFKS: 0.0678
area with substrate ENLYFLS: 0.0633
area with substrate ENLYFMS: 0.063
area with substrate ENLYFNS: 0.0608
area with substrate ENLYFPS: 0.0472
area with substrate ENLYFRS: 0.0855
area with substrate ENLYFSS: 0.0472
area with substrate ENLYFTS: 0.0447
area with substrate ENLYFWS: 0.0573
area with substrate ENLYFYS: 0.0566
